These are yes or no findings as the source states them, for the method shown. For part of these data: Binding seen in cells or lysates may run through a third protein. Some binding calls cover weakened binding; strength is not graded here. Tags and fused reporters may be left off the sequences shown.
Key:
[1] = biological target: T1, CLUC-CPL1 (Arabidopsis thaliana) (UniProt Q5YDB6); test: split reporter; luciferase complementation imaging (LuCI); NLUC and CLUC fusions co-expressed with P19 in Nicotiana benthamiana leaves by Agrobacterium infiltration; luminescence 3 d after infiltration
T1 sequence: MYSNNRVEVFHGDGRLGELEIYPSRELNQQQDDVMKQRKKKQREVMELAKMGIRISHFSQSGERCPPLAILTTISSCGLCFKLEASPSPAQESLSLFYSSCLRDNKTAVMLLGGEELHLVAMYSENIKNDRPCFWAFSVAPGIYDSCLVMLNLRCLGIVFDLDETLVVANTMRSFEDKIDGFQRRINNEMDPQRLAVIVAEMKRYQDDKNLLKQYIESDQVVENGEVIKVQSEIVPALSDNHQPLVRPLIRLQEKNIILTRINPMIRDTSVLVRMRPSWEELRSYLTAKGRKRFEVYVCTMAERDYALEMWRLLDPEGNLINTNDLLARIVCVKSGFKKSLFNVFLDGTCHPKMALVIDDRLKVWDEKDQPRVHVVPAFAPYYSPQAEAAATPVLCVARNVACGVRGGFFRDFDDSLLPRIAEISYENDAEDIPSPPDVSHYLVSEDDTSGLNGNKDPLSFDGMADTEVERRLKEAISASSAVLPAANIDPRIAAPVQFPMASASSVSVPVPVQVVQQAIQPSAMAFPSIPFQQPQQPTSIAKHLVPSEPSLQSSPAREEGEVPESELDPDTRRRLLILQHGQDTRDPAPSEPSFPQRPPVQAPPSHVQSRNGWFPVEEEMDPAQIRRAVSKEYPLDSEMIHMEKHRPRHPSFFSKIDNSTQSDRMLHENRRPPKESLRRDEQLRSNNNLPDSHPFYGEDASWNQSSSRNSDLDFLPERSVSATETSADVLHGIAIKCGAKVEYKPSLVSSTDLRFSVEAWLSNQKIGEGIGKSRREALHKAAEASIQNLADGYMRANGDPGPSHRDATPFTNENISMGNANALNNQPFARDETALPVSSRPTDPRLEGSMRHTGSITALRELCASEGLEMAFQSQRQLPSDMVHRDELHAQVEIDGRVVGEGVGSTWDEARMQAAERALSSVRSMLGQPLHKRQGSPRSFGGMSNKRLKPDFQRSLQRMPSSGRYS

[2] = biological target: T2, CLUC-CPL1^1–714 (Arabidopsis thaliana) (UniProt Q5YDB6); test: as above
T2 sequence: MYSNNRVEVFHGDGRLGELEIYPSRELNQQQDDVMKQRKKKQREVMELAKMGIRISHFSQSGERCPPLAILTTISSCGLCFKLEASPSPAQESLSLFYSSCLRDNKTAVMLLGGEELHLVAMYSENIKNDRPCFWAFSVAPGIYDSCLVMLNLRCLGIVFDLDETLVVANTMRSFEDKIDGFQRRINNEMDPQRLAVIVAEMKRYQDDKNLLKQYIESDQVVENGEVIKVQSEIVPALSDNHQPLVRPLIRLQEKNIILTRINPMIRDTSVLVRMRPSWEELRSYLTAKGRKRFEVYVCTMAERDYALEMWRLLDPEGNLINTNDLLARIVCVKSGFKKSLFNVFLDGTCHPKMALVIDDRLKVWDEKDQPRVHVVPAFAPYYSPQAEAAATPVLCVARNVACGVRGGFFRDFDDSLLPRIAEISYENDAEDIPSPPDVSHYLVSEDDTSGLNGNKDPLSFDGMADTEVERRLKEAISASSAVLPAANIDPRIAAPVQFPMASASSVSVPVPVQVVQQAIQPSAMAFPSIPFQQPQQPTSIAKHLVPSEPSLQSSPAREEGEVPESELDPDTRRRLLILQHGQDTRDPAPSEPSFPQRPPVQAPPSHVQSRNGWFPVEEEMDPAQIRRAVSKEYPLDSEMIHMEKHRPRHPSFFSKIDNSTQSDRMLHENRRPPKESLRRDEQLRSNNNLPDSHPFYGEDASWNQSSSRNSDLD

[3] = biological target: T3, CLUC-CPL1^699–967 (Arabidopsis thaliana) (UniProt Q5YDB6); test: as above
T3 sequence: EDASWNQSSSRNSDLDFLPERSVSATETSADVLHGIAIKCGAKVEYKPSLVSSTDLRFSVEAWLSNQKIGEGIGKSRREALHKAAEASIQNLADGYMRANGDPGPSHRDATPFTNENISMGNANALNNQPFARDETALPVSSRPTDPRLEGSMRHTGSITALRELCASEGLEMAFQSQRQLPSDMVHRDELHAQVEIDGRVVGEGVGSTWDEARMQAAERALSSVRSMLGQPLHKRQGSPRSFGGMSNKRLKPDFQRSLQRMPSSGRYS

[4] = biological target: T4, GAL4 DNA-binding domain fused with CPL1^699–967 (BD:C1D) (Arabidopsis thaliana) (UniProt Q5YDB6); test: two-hybrid; yeast PJ69-4A; GAL4-BD (pBUTE^GW) and GAL4-AD (pGAD^GW) fusions, both orientations; growth on SD -ULHA with X-alpha-gal, 28°C, 48 h
T4 sequence: T3 sequence

[5] = biological target: T5, GAL4 DNA-binding domain fused with CPL2 dsRBM (BD:C2^602–770) (Arabidopsis thaliana) (UniProt Q5YDB5); test: as above
T5 sequence: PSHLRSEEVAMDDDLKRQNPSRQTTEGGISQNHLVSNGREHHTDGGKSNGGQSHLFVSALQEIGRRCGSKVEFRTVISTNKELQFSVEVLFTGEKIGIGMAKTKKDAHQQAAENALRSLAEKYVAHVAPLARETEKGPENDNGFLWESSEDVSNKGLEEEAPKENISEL

[6] = biological target: T6, GAL4 DNA-binding domain fused with full-length CPL1 (BD:CPL1) (Arabidopsis thaliana) (UniProt Q5YDB6); test: as above
T6 sequence: T1 sequence

[7] = biological target: T7, NLUC-RCF3 (Arabidopsis thaliana) (UniProt Q8W4B1); test: split reporter; luciferase complementation imaging (LuCI); NLUC and CLUC fusions co-expressed with P19 in Nicotiana benthamiana leaves by Agrobacterium infiltration; luminescence 3 d after infiltration
T7 sequence: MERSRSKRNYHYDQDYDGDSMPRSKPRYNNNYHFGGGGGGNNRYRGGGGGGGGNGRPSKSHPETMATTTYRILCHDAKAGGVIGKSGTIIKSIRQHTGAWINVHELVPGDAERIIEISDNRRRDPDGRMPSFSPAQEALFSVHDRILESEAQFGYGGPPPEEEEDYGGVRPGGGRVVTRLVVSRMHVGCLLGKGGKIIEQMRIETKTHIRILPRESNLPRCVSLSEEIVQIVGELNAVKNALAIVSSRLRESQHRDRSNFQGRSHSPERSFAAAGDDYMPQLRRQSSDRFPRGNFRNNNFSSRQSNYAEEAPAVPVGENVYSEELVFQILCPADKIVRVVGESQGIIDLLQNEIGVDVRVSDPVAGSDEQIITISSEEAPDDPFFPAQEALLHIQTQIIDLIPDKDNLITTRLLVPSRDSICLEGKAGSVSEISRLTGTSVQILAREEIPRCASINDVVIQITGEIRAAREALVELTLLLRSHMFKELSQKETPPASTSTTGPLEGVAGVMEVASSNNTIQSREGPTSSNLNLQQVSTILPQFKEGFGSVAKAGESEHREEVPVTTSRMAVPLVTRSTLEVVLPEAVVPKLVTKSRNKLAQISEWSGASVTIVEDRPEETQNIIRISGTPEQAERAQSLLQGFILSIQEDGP

[8] = biological target: T8, RCF3-nYFP (Arabidopsis thaliana) (UniProt Q8W4B1); test: split reporter; BiFC; nYFP and cYFP fusions co-expressed in Arabidopsis mesophyll protoplasts; YFP fluorescence one day after transformation
T8 sequence: T7 sequence

B1: NLUC-RCF3 (protein, UniProt Q8W4B1 1-652)
chain: T7 sequence
- binding [1]: binds
- binding [2]: no binding
- binding [3]: binds

B2: GAL4 activation domain fused with RCF3 (AD:RCF3) (protein, UniProt Q8W4B1 1-652)
chain: T7 sequence
- binding [4]: binds
- binding [5]: no binding
- binding [6]: binds

B3: LUC fragments fused to MYB75 (LuCI negative control) (protein, UniProt Q9FE25 1-248)
chain: MEGSSKGLRKGAWTTEEDSLLRQCINKYGEGKWHQVPVRAGLNRCRKSCRLRWLNYLKPSIKRGKLSSDEVDLLLRLHRLLGNRWSLIAGRLPGRTANDVKNYWNTHLSKKHEPCCKIKMKKRDITPIPTTPALKNNVYKPRPRSFTVNNDCNHLNAPPKVDVNPPCLGLNINNVCDNSIIYNKDKKKDQLVNNLIDGDNMWLEKFLEESQEVDILVPEATTTEKGDTLAFDVDQLWSLFDGETVKFD
- binding [1]: no binding
- binding [7]: no binding

B4: MYB75-cYFP (protein, UniProt Q9FE25 1-248)
chain: B3 chain
- binding [8]: no binding

Source: article PMC3841200
